The values below come from PubChem BioAssay AID1963576 (National Center for Advancing Translational Sciences (NCATS), 2024).

Structures are written as SMILES. Hit rate of the full screen: of about 46,000 compounds, about 60 (0.1%) were called active. Inconclusive results (about 3%) are left out. The call rests on the fitted dose curve; in most records, active means well fitted inhibition curve with a large enough effect; inconclusive means small, poorly fitted or top-dose-only effect; inactive means no such curve, though single readings can be large or run the other way. This is one part of the list.

The nature of the assay: Primary qHTS assay for Inhibitors of ovarian cancer metastasis using an organotypic tumor microenvironment (TME) model. Further: nearly all actives have a fitted effect of over 65% in size.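 On activity change, negative = inhibition: plate controls were DMSO wells for no effect and tomatine positive control wells for full effect.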 The conditions noted are these: SKOV3ip1-GFP adhesion/invasion on 3D omental model, fluorescence; series mostly up to 45.8 µM; activity change, negative = inhibition: at the top concentration. In outline:
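qHTS, 4-pt dose (0.36-46 umol/L); SKOV3ip1-GFP, 1,200 cells/well, no FBS; primary omental fibroblast/mesothelial co-culture 48 h pre-grown; 2 h RT + 16 h 37 C; PBS wash, 4% PFA; GFP count 488/509 nm.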
Background: In qHTS, concentration-response curves come from the screen itself.
As to `O=C(O)Cn1c(-c2cccs2)cc2cc(Cl)ccc21`, the “activity change, negative = inhibition” value is inactive: -9.39%.

For the compound `O=C(Nc1cccc(C(F)(F)F)c1)c1cc(-c2ccc(Cl)s2)nc2ccccc12`, the “activity change, negative = inhibition” value was inactive: -13.8%.

As to `O=C(Nc1cccs1)Nc1ccc(F)cc1F`, the “activity change, negative = inhibition” value was inactive: 21.9%. Turning to `COc1cccc(COC(=O)c2ccc(-c3nnn(Cc4cccc(OC)c4)n3)cc2)c1`, the compound was classed as inactive. In the case of `COc1ccc(Cn2c(CO)cnc2SCC(=O)Nc2ccc3c(c2)OCCO3)cc1`, the “activity change, negative = inhibition” value is inactive: 17.3%. With `CC(=O)N1CCc2c(sc3c2c(=O)n(-c2ccc(F)cc2)c(=O)n3Cc2ccc(C#N)cc2)C1`, the “activity change, negative = inhibition” value was inactive: 1.84%. Still for that read-out and setting: with `CC1CCc2c(sc3nnn(Cc4cccc(C(=O)OC(C)C)c4)c(=O)c23)C1` (configuration not stated) the figure was inactive: -3.43%. For `Cc1ccc(S(=O)(=O)n2nc(-c3ccc(Cl)cc3)nc2NCc2ccccc2)cc1`, the result was inactive. Take `COCCn1ccc2c(OCC(=O)Nc3c(C)cc(C)cc3C)cccc2c1=O`: the “activity change, negative = inhibition” value was inactive: 6.37%.

In the case of `CCCSc1oc(-c2ccco2)nc1S(=O)(=O)c1ccc(Br)cc1`, the “activity change, negative = inhibition” value is inactive: -1.2%. Take `COCCCNC(=O)Cn1nc(N2CCN(c3ccccc3)CC2)ccc1=O`: the “activity change, negative = inhibition” value is inactive: -12.6%. On the same count and under the same terms, with `Cn1c(-n2cccc2)c(-c2c(-c3ccc(F)cc3)[nH]c3c2c(=O)n(C)c(=O)n3C)c(=O)n(C)c1=O` the figure was inactive: 0.682%. For `COc1ccc(-n2ccnc(NCc3cccs3)c2=O)cc1OC`, the result was inactive. Regarding `COc1ccc(CC(=O)Nc2cc(-c3cn4cccnc4n3)ccc2C)cc1OC`, the “activity change, negative = inhibition” value is inactive: 5.2%.

For the compound `CC1=C(c2ccc(C(C)C)cc2)S(=O)(=O)N=C1N1CCC(C(=O)NCc2ccccc2)CC1`, the “activity change, negative = inhibition” value is inactive: 1.91%.

With `CCOc1ccccc1CNC(=O)C1CCN(S(=O)(=O)c2c(C)noc2/C=C/c2ccccc2F)CC1`, the “activity change, negative = inhibition” value is inactive: 15.7%. For the compound `CCn1c(C(=O)NCc2ccccc2OC)cc2sccc21`, the “activity change, negative = inhibition” value is inactive: 6.74%. Same read-out and setting: with `COc1cccc(CNS(=O)(=O)c2cc(Br)cc3c2N(C(C)=O)C(C)C3)c1` (configuration not stated) the figure was inactive: -3.38%; with `O=C(CSCc1cnn(-c2ccccc2)c1-n1cccc1)NCc1ccccc1F`, inactive: 9.4%.

`CCCN1CCN(c2ncnc3sc(C(=O)Nc4ccc(N(CC)CC)cc4C)c(C)c23)CC1`: the “activity change, negative = inhibition” value was inactive: -25.4%. `CCCOC(=O)C(C)n1nnc2sc(-c3ccccc3)cc2c1=O` (configuration not stated): the call was inactive. Take `Cc1ccn2c(Nc3ccc4c(c3)OCO4)c(-c3ccc(O)cc3)nc2c1`: the “activity change, negative = inhibition” value is inactive: -31.3%. As for `CCCCOc1ccc(S(=O)(=O)n2nc(C)c(S(=O)(=O)N3CCC(C)CC3)c2C)cc1`, the “activity change, negative = inhibition” value was inactive: 56.4%. Same read-out and setting: with `O=C(Nc1ccccc1)Nc1ccc(-c2ccc(C(=O)[C@H]3CCC[C@H]3C(=O)O)cc2)cc1` the figure was inactive: -6.58%; with `COC(=O)c1ccccc1NC(=O)c1nc(S(=O)(=O)Cc2ccccc2F)ncc1Cl`, inactive: 3.76%. On the same count and under the same terms, the same measure for `Cc1ccc(-n2nc(C(=O)N3CCN(c4ccccc4)CC3)c(=O)n(C)c2=O)cc1`: inactive: 0.998%. In the case of `CCc1ccc(-n2c(=O)c3c4c(sc3n(CC(=O)NCCCOC)c2=O)CCC4)cc1`, the outcome was inactive. For the compound `Cc1cccc(Cc2cnc(NC(=O)c3ccc4c(c3)CC(c3ccccc3)OC4=O)s2)c1` (configuration not stated), the “activity change, negative = inhibition” value was inactive: -3.9%. The same measure, in the same setting: the same measure for `Cc1ccc2oc(C(=O)Nc3ccc(S(=O)(=O)N(C)Cc4ccccc4)cc3)cc(=O)c2c1`: inactive: -3.05%.

In the case of `CN(C)S(=O)(=O)Nc1ccc(-c2cn3ccsc3n2)cc1`, the outcome was inactive. Consider `CCc1ccccc1NC(=O)C1CCN(c2nn3c(=O)cc(C)nc3s2)CC1`, for which the “activity change, negative = inhibition” value is inactive: 2.46%.

Consider `COc1cccc(CC(=O)NCc2ccc3c(c2)CCN3C(C)=O)c1`, for which the “activity change, negative = inhibition” value is inactive: -4%. Same read-out and setting: with `Cc1ccccc1Cn1c(C)c(CNCc2ccccc2)c(C(=O)O)c1C` the figure was inactive: 15.4%. Turning to `CC(NC(=O)c1ccc2nc(CCc3ccccc3)oc2c1)c1ccccc1` (configuration not stated), the “activity change, negative = inhibition” value was inactive: 4.97%. With `CC(C)Oc1ccc(CNC(=O)c2ccc3nc(SCc4ccc(F)cc4)n(C)c3c2)cc1`, the call was inactive.

In the case of `Cc1ccc(C)c(NC(=O)CCc2c(C)n(C)c3cc(-c4ccccc4C)nn3c2=O)c1`, the call was inactive. On the same count and under the same terms, the same measure for `COc1cccc(N2CCN(C(=O)c3ccc(CS(=O)c4cccc(Cl)c4)o3)CC2)c1` (configuration not stated): “inactive”.

`O=C(NCCc1ccc(Cl)cc1)c1ccc2c(c1)N(Cc1ccccc1)CCS2`: the “activity change, negative = inhibition” value was inactive: -1.23%. Same read-out and setting: the same measure for `COc1ccc(NC(=O)c2nc(SCc3ccccc3F)ncc2Cl)cc1`: inactive: -2.32%; for `CCOc1ccc(NC(=O)Cn2c(CCC(=O)O)ccc2-c2ccc(Cl)cc2)cc1`: inactive: -3.58%. Take `Cc1ccc(C)c(Cn2c3ccccc3c3cnn(CC(=O)N4CCCCC4)c(=O)c32)c1`: the “activity change, negative = inhibition” value is inactive: 1.69%. Same read-out and setting: the same measure for `CCCN1C(C(=O)c2ccccc2)=C(OC(=O)c2ccc(F)cc2)c2ccccc2S1(=O)=O`: inactive: 5.98%; for `Cc1ccc(NC(=O)CCS(=O)(=O)c2cccc3nonc23)c(C)c1`: inactive: -19.4%. Take `CC(C)c1ccc(C2=CC(c3cccc(Cl)c3)n3ncnc3N2)cc1` (configuration not stated): the “activity change, negative = inhibition” value is inactive: -17.3%.

As for `Cc1nn(CCC(=O)NC(C)C)c(=O)c2nn(-c3ccccc3)c(C)c12`, the “activity change, negative = inhibition” value is inactive: -0.485%. As to `Cc1cccc(-n2c(=O)c3ccccc3n(Cc3ccccc3C#N)c2=O)c1`, the “activity change, negative = inhibition” value is inactive: 5.65%. On the same count and under the same terms, with `COc1cc2c(C(=O)N3CCN(c4cccc(C)c4)C(C)C3)cn(CC(C)C)c(=O)c2cc1OC` (configuration not stated) the figure was inactive: -8.62%; with `COc1ccc(Cl)cc1NC(=O)c1cc(S(=O)(=O)N2CCc3ccccc32)cn1C`, inactive: 13.4%. The same measure, in the same setting: with `Cc1ccc2nc(NCc3ccccc3Cl)c3nnnn3c2c1` the figure was inactive: 2.19%; with `COc1cccc(Cc2nc3ccccc3nc2SCC(=O)N2CCCCC2C)c1` (configuration not stated), inactive: 1.68%. The same measure, in the same setting: with `CCc1nnc(NC(=O)c2nc(S(C)(=O)=O)ncc2Cl)s1` the figure was inactive: -7.84%. With `O=C(CSc1nc2c([nH]c3ccccc32)c(=O)n1-c1cccc(Cl)c1)N1CCc2ccccc21`, the outcome was inactive.

For `COc1cc(NC(=O)CCc2c(C)n(C)c3cc(-c4ccccc4C)nn3c2=O)cc(OC)c1OC`, the “activity change, negative = inhibition” value was inactive: -0.346%.

Turning to `O=C(CN1C(=O)CSc2ccc(S(=O)(=O)N3CCCCC3)cc21)NCc1ccc(F)cc1Cl`, the “activity change, negative = inhibition” value is inactive: -0.358%. Take `O=C(NCc1ccco1)c1ccc2c(c1)N(Cc1ccc(F)cc1)C(=O)c1ccccc1S2=O` (configuration not stated): the “activity change, negative = inhibition” value is inactive: 2.12%. `CCOc1ccccc1NC(=O)c1sc2nc3c(cc2c1N)CN(Cc1ccccc1)CC3`: the “activity change, negative = inhibition” value was inactive: -1.71%. Same read-out and setting: with `COc1cc2ccccc2cc1C(=O)Nc1ccc2oc(-c3cc(Br)ccc3Cl)nc2c1` the figure was inactive: 1.21%. As for `Cc1nc(N)sc1-c1ccnc(Nc2ccc(N3CCOCC3)cc2)n1`, the “activity change, negative = inhibition” value is inactive: -18.5%.

For the compound `COc1cccc(C(=O)CN2CCN(S(=O)(=O)c3ccc(Cl)cc3)CC2)c1`, the “activity change, negative = inhibition” value is inactive: 5.84%. Turning to `COc1ccc(C(CNC(=O)c2ccc(C)cc2)N2CCOCC2)cc1` (configuration not stated), the “activity change, negative = inhibition” value was inactive: 2.5%. On to `Cc1noc(NS(=O)(=O)c2ccc(N)cc2)c1C`, for which the “activity change, negative = inhibition” value was inactive: 22.7%. As to `O=C(c1cccs1)N1CCCc2cc(NS(=O)(=O)c3ccc(Cl)cc3)ccc21`, the “activity change, negative = inhibition” value is inactive: -9.85%.
